# In the supplement of paper PMC8728848:
# Some of the results follow.
# B1: Neuropilin-1 (Rattus norvegicus), Q9QWJ9 (protein)
# chain: MERGLPLLCATLALALALAGAFRSDKCGGTIKIENPGYLTSPGYPHSYHPSEKCEWLIQAPEPYQRIMINFNPHFDLEDRDCKYDYVEVIDGENEGGRLWGKFCGKIAPSPVVSSGPFLFIKFVSDYETHGAGFSIRYEIFKRGPECSQNYTAPTGVIKSPGFPEKYPNSLECTYIIFAPKMSEIILEFESFDLEQDSNPPGGVFCRYDRLEIWDGFPEVGPHIGRYCGQKTPGRIRSSSGILSMVFYTDSAIAKEGFSANYSVLQSSISEDFKCMEALGMESGEIHSDQITASSQYGTNWSVERSRLNYPENGWTPGEDSYREWIQVDLGLLRFVTAVGTQGAISKETKKKYYVKTYRVDISSNGEDWITLKEGNKAIIFQGNTNPTDVVFGVFPKPLITRFVRIKPASWETGISMRFEVYGCKITDYPCSGMLGMVSGLISDSQITASNQGDRNWMPENIRLVTSRTGWALPPSPHPYINEWLQVDLGDEKIVRGVIIQGGKHRENKVFMRKFKIAYSNNGSDWKMIMDDSKRKAKSFEGNNNYDTPELRAFTPLSTRFIRIYPERATHSGLGLRMELLGCEVEVPTAGPTTPNGNPVDECDDDQANCHSGTGDDFQLTGGTTVLATEKPTIIDSTIQSEFPTYGFNCEFGWGSHKTFCHWEHDSHAQLRWRVLTSKTGPIQDHTGDGNFIYSQADENQKGKVARLVSPVVYSQSSAHCMTFWYHMSGSHVGTLRVKLHYQKPEEYDQLVWMVVGHQGDHWKEGRVLLHKSLKLYQVIFEGEIGKGNLGGIAVDDISINNHIPQEDCAKPTDLDKKNTEIKIDETGSTPGYEEGKGDKNISRKPGNVLKTLDPILITIIAMSALGVLLGAVCGVVLYCACWHNGMSERNLSALENYNFELVDGVKLKKDKLNPQSNYSEA
# Legend:
# Test in all cases: glycan array binding signal (z-score within array); higher = stronger binding
# Details in all cases: glycan notation: IUPAC condensed, linker removed
# [1] = target: Fuc(a1-2)[Gal(a1-3)]Gal(b1-4)GlcNAc(b1-2)Man(a1-3)[Fuc(a1-2)[Gal(a1-3)]Gal(b1-4)GlcNAc(b1-2)Man(a1-6)]Man(b1-4)GlcNAc(b1-4)GlcNAc
# Outline: (§1)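 Arrays were curated from the Consortium for Functional Glycomics database, 3228 in total, and kept only where the protein sequence was available. Binding is expressed as a within-array Z-score. This score was averaged across arrays of the same protein sequence at different concentrations or buffers and across linkers, and negative values can be read as non-binding.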
# [2] = target: Fuc(a1-2)[Gal(a1-3)]Gal(b1-4)[Fuc(a1-3)]GlcNAc
# Outline: as §1
# [3] = target: Fuc(a1-2)[Gal(a1-4)]Gal(b1-4)GlcNAc
# Outline: as §1
# [4] = target: Fuc(a1-2)[GalNAc(a1-3)]Gal
# Outline: as §1
# [5] = target: Fuc(a1-2)[GalNAc(a1-3)]Gal(b1-3)GlcNAc
# Outline: as §1
# [6] = target: Fuc(a1-2)[GalNAc(a1-3)]Gal(b1-3)GlcNAc(b1-2)Man(a1-3)[Fuc(a1-2)[GalNAc(a1-3)]Gal(b1-3)GlcNAc(b1-2)Man(a1-6)]Man(b1-4)GlcNAc(b1-4)GlcNAc
# Outline: as §1
# [7] = target: Fuc(a1-2)[GalNAc(a1-3)]Gal(b1-4)Glc
# Outline: as §1
# [8] = target: Fuc(a1-2)[GalNAc(a1-3)]Gal(b1-4)GlcNAc
# Outline: as §1
# [9] = target: Fuc(a1-2)[GalNAc(a1-3)]Gal(b1-4)GlcNAc(b1-2)Man(a1-3)[GalNAc(a1-3)[Fuc(a1-2)]Gal(b1-4)GlcNAc(b1-2)Man(a1-6)]Man(b1-4)GlcNAc(b1-4)GlcNAc
# Outline: as §1
# [10] = target: Fuc(a1-2)[GalNAc(a1-3)]Gal(b1-4)GlcNAc(b1-3)Gal(b1-4)GlcNAc
# Outline: as §1
# [11] = target: Fuc(a1-2)[GalNAc(a1-3)]Gal(b1-4)GlcNAc(b1-3)Gal(b1-4)GlcNAc(b1-3)Gal(b1-4)GlcNAc
# Outline: as §1
# [12] = target: Fuc(a1-2)[GalNAc(a1-3)]Gal(b1-4)[Fuc(a1-3)]GlcNAc
# Outline: as §1
# [13] = target: Fuc(a1-2)[GalNAc(a1-4)]Gal(b1-4)GlcNAc
# Outline: as §1
# [14] = target: Fuc(a1-2)[GalNAc(b1-3)]Gal
# Outline: as §1
# Fuc(a1-3)GlcNAc = target: Fuc(a1-3)GlcNAc
# Outline: as §1
# [15] = target: Fuc(a1-3)[Gal(b1-4)]Glc6S
# Outline: as §1
# [16] = target: Fuc(a1-3)[Gal(b1-4)]GlcNAc
# Outline: as §1
# [17] = target: Fuc(a1-3)[Gal(b1-4)]GlcNAc(b1-2)Man(a1-3)[Fuc(a1-3)[Gal(b1-4)]GlcNAc(b1-2)Man(a1-6)]Man(b1-4)GlcNAc(b1-4)GlcNAc
# Outline: as §1
# [18] = target: Fuc(a1-3)[Gal(b1-4)]GlcNAc(b1-2)Man(a1-6)[Gal(b1-4)GlcNAc(b1-2)Man(a1-3)]Man(b1-4)GlcNAc(b1-4)GlcNAc
# Outline: as §1
# [19] = target: Fuc(a1-3)[Gal(b1-4)]GlcNAc(b1-3)Gal(b1-3)[Fuc(a1-4)]GlcNAc
# Outline: as §1
# [20] = target: Fuc(a1-3)[Gal(b1-4)]GlcNAc(b1-4)Gal(b1-4)[Fuc(a1-3)]GlcNAc
# Outline: as §1
# [21] = target: Fuc(a1-3)[Gal(b1-4)]GlcNAc(b1-4)Gal(b1-4)[Fuc(a1-3)]GlcNAc(b1-4)Gal(b1-4)[Fuc(a1-3)]GlcNAc
# Outline: as §1
# [22] = target: Fuc(a1-3)[Gal(b1-4)]GlcNAc6S
# Outline: as §1
# [23] = target: Fuc(a1-3)[Gal3S(b1-4)]Glc6S
# Outline: as §1
# [24] = target: Fuc(a1-3)[Gal3S(b1-4)]GlcNAc
# Outline: as §1
# [25] = target: Fuc(a1-3)[Gal3S(b1-4)]GlcNAc6S
# Outline: as §1
# [26] = target: Fuc(a1-3)[GalNAc(b1-4)]GlcNAc
# Outline: as §1
# Fuc(a1-4)GlcNAc = target: Fuc(a1-4)GlcNAc
# Outline: as §1
# Fuc(b1-3)GlcNAc = target: Fuc(b1-3)GlcNAc
# Outline: as §1
# Gal(a1-2)Gal = target: Gal(a1-2)Gal
# Outline: as §1
# Gal(a1-3)Gal = target: Gal(a1-3)Gal
# Outline: as §1
# Gal(a1-3)Gal(b1-3)GlcNAc = target: Gal(a1-3)Gal(b1-3)GlcNAc
# Outline: as §1
# Gal(a1-3)Gal(b1-4)Glc = target: Gal(a1-3)Gal(b1-4)Glc
# Outline: as §1
# Gal(a1-3)Gal(b1-4)GlcNAc = target: Gal(a1-3)Gal(b1-4)GlcNAc
# Outline: as §1
# [27] = target: Gal(a1-3)Gal(b1-4)[Fuc(a1-3)]GlcNAc
# Outline: as §1
# [28] = target: Gal(a1-3)Gal(b1-4)[Fuc(a1-3)]GlcNAc(b1-2)Man(a1-3)[Gal(a1-3)Gal(b1-4)[Fuc(a1-3)]GlcNAc(b1-2)Man(a1-6)]Man(b1-4)GlcNAc(b1-4)GlcNAc
# Outline: as §1
# Gal(a1-3)GalNAc = target: Gal(a1-3)GalNAc
# Outline: as §1
# [29] = target: Gal(a1-3)[Gal(a1-4)]Gal(b1-4)GlcNAc
# Outline: as §1
# Gal(a1-4)Gal(b1-4)Glc = target: Gal(a1-4)Gal(b1-4)Glc
# Outline: as §1
# Gal(a1-4)Gal(b1-4)GlcNAc = target: Gal(a1-4)Gal(b1-4)GlcNAc
# Outline: as §1
# [30] = target: Gal(a1-4)Gal(b1-4)GlcNAc(b1-3)Gal(b1-4)Glc
# Outline: as §1
# Gal(a1-4)GlcNAc = target: Gal(a1-4)GlcNAc
# Outline: as §1
# Gal(a1-6)Glc = target: Gal(a1-6)Glc
# Outline: as §1
# Gal(b1-2)Gal = target: Gal(b1-2)Gal
# Outline: as §1
# Gal(b1-3)Gal = target: Gal(b1-3)Gal
# Outline: as §1
# Gal(b1-3)Gal(b1-4)GlcNAc = target: Gal(b1-3)Gal(b1-4)GlcNAc
# Outline: as §1
# [31] = target: Gal(b1-3)Gal(b1-4)GlcNAc(b1-2)Man(a1-3)[Gal(b1-3)Gal(b1-4)GlcNAc(b1-2)Man(a1-6)]Man(b1-4)GlcNAc(b1-4)GlcNAc
# Outline: as §1
# Gal(b1-3)GalNAc = target: Gal(b1-3)GalNAc
# Outline: as §1
# [32] = target: Gal(b1-3)GalNAc(a1-3)[Fuc(a1-2)]Gal(b1-4)Glc
# Outline: as §1
# [33] = target: Gal(b1-3)GalNAc(a1-3)[Fuc(a1-2)]Gal(b1-4)GlcNAc
# Outline: as §1
# [34] = target: Gal(b1-3)GalNAc(b1-3)Gal(a1-4)Gal(b1-4)Glc
# Outline: as §1
# [35] = target: Gal(b1-3)GalNAc(b1-4)Gal(b1-4)Glc
# Outline: as §1
# [36] = target: Gal(b1-3)GalNAc(b1-4)[Neu5Ac(a2-3)]Gal(b1-4)Glc
# Outline: as §1
# Gal(b1-3)GlcNAc = target: Gal(b1-3)GlcNAc
# Outline: as §1
# [37] = target: Gal(b1-3)GlcNAc(b1-2)Man(a1-3)[Gal(b1-3)GlcNAc(b1-2)Man(a1-6)]Man(b1-4)GlcNAc(b1-4)GlcNAc
# Outline: as §1
# [38] = target: Gal(b1-3)GlcNAc(b1-2)Man(a1-3)[Gal(b1-3)GlcNAc(b1-2)Man(a1-6)]Man(b1-4)GlcNAc(b1-4)[Fuc(a1-6)]GlcNAc
# Outline: as §1
# [39] = target: Gal(b1-3)GlcNAc(b1-3)Gal(b1-3)GlcNAc
# Outline: as §1
# [40] = target: Gal(b1-3)GlcNAc(b1-3)Gal(b1-4)Glc
# Outline: as §1
# [41] = target: Gal(b1-3)GlcNAc(b1-3)Gal(b1-4)GlcNAc
# Outline: as §1
# [42] = target: Gal(b1-3)[Fuc(a1-4)]GlcNAc
# Outline: as §1
binder,measurement,setting,value
B1,glycan array binding signal (z-score),[1],7.21
same,glycan array binding signal (z-score),[2],1.28
same,glycan array binding signal (z-score),[3],-0.118
same,glycan array binding signal (z-score),[4],-0.111
same,glycan array binding signal (z-score),[5],-0.205
same,glycan array binding signal (z-score),[6],0.958
same,glycan array binding signal (z-score),[7],-0.304
same,glycan array binding signal (z-score),[8],-0.194
same,glycan array binding signal (z-score),[9],5.38
same,glycan array binding signal (z-score),[10],-0.035
same,glycan array binding signal (z-score),[11],0.098
same,glycan array binding signal (z-score),[12],-0.067
same,glycan array binding signal (z-score),[13],-0.27
same,glycan array binding signal (z-score),[14],-0.404
same,glycan array binding signal (z-score),Fuc(a1-3)GlcNAc,-0.273
same,glycan array binding signal (z-score),[15],0.686
same,glycan array binding signal (z-score),[16],-0.276
same,glycan array binding signal (z-score),[17],1.35
same,glycan array binding signal (z-score),[18],-0.363
same,glycan array binding signal (z-score),[19],-0.195
same,glycan array binding signal (z-score),[20],-0.001
same,glycan array binding signal (z-score),[21],-0.172
same,glycan array binding signal (z-score),[22],0.233
same,glycan array binding signal (z-score),[23],3.8
same,glycan array binding signal (z-score),[24],-0.201
same,glycan array binding signal (z-score),[25],1.08
same,glycan array binding signal (z-score),[26],-0.216
same,glycan array binding signal (z-score),Fuc(a1-4)GlcNAc,-0.269
same,glycan array binding signal (z-score),Fuc(b1-3)GlcNAc,-0.269
same,glycan array binding signal (z-score),Gal(a1-2)Gal,0.067
same,glycan array binding signal (z-score),Gal(a1-3)Gal,-0.1
same,glycan array binding signal (z-score),Gal(a1-3)Gal(b1-3)GlcNAc,-0.232
same,glycan array binding signal (z-score),Gal(a1-3)Gal(b1-4)Glc,-0.313
same,glycan array binding signal (z-score),Gal(a1-3)Gal(b1-4)GlcNAc,-0.169
same,glycan array binding signal (z-score),[27],-0.231
same,glycan array binding signal (z-score),[28],4.58
same,glycan array binding signal (z-score),Gal(a1-3)GalNAc,-0.354
same,glycan array binding signal (z-score),[29],-0.114
same,glycan array binding signal (z-score),Gal(a1-4)Gal(b1-4)Glc,-0.279
same,glycan array binding signal (z-score),Gal(a1-4)Gal(b1-4)GlcNAc,-0.229
same,glycan array binding signal (z-score),[30],-0.247
same,glycan array binding signal (z-score),Gal(a1-4)GlcNAc,-0.316
same,glycan array binding signal (z-score),Gal(a1-6)Glc,-0.36
same,glycan array binding signal (z-score),Gal(b1-2)Gal,-0.273
same,glycan array binding signal (z-score),Gal(b1-3)Gal,0.132
same,glycan array binding signal (z-score),Gal(b1-3)Gal(b1-4)GlcNAc,-0.301
same,glycan array binding signal (z-score),[31],2.39
same,glycan array binding signal (z-score),Gal(b1-3)GalNAc,-0.208
same,glycan array binding signal (z-score),[32],-0.323
same,glycan array binding signal (z-score),[33],-0.26
same,glycan array binding signal (z-score),[34],-0.203
same,glycan array binding signal (z-score),[35],-0.305
same,glycan array binding signal (z-score),[36],-0.257
same,glycan array binding signal (z-score),Gal(b1-3)GlcNAc,0.051
same,glycan array binding signal (z-score),[37],-0.258
same,glycan array binding signal (z-score),[38],-0.174
same,glycan array binding signal (z-score),[39],-0.264
same,glycan array binding signal (z-score),[40],-0.265
same,glycan array binding signal (z-score),[41],-0.189
same,glycan array binding signal (z-score),[42],-0.008
